Out of some 410,000 compounds screened, about 5,000 (1.2%) were called active. The inconclusive results got no clear call from the source; some entries with a clear call stand among them for comparison. The call rests on the fitted dose curve; in most records, active means well fitted inhibition curve with a large enough effect; inconclusive means small, poorly fitted or top-dose-only effect; inactive means no such curve, though single readings can be large or run the other way. Where the call is inconclusive, the potency comes from a doubtful curve fit.
Test: qHTS for Inhibitors of TGF-b; further: nearly all actives have a fitted effect of over 65% in size
Details: HepG2 CAGA-GFP TGF-b/SMAD3 reporter, GFP fluorescence, 18 h, TGF-beta stimulated, 500 pg/mL final; series mostly up to 46.1 µM
Outline: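 Per well, imaged GFP fluorescence of HEPG2 CAGA-GFP cells gives the signal; cells get compound, then TGF-beta (500 pg/mL final), 18 h at 37 degrees C; %Activity versus -TGF-beta and +DMSO controls.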
Potency means the concentration at half of the fitted maximal effect; tags describe the fitted curve by direction and shape.

| SMILES | Potency |
| --- | --- |
| Cc1ccc2c(c1)C(c1ccccc1)N(C(=O)C(C)C)CC(=O)N2 (stereo not drawn) | inconclusive: 35.5 µM [inhibitor, single point] |
| CC1=C/C(=C(\c2cc(C)c(O)c(Br)c2)c2ccccc2S(=O)(=O)O)C=C(Br)C1=O | inactive |
| CC(C)(C)N(Cc1ccccc1)C(=O)COC(=O)CN1C(=O)NC2(CCCC2)C1=O | inconclusive: 0.112 µM [inhibitor, full curve, poor fit] |
| Oc1cccc(-c2nc(-c3cccs3)c(-c3cccs3)[nH]2)c1 | active: 14.1 µM |
| CCCN(CCC)CCCNC(=O)c1sc2nc3n(c(=O)c2c1C)CCC3 | inconclusive: 10 µM [inhibitor, partial curve, poor fit] |
| COc1cccc(C2c3cc4c(cc3OC(N3CCOCC3)C2C)OCO4)c1O (stereo not drawn) | inconclusive: 0.112 µM [inhibitor, full curve, poor fit] |
| C(=C\c1ccc2ccccc2n1)/c1ccc2ccccc2n1 | inactive |
| CC1=C(C(=O)OCC2CCCO2)C(c2coc3ccc(Cl)cc3c2=O)C2=C(CCCC2=O)N1 (stereo not drawn) | inconclusive: 5.62 µM [inhibitor, single point] |
| Cc1ccc(C(=O)OCC(=O)NC2CCCC(C)C2C)cc1S(=O)(=O)N1CCCCC1 (stereo not drawn) | inactive |
| O=C(Oc1cccc(-c2cnc3ccccc3n2)c1)c1ccco1 | inconclusive: 2.51 µM [inhibitor, full curve, poor fit] |
| Cc1nc(N2CCN(S(=O)(=O)c3ccccc3C#N)CC2)c2c(-c3ccccc3)csc2n1 | inconclusive: 25.1 µM [inhibitor, single point] |
| Cc1cccc(OCC(=O)NC(C)C(=O)N/N=C/c2c(OCc3ccccc3)ccc3ccccc23)c1 (stereo not drawn) | inactive |
| c1cc(CNc2ccc(N3CCOCC3)cc2)ccn1 | inconclusive: 3.55 µM [inhibitor, partial curve, poor fit] |
| CC[C@]1(C(=O)OC)[C@H]2C(=O)N(Cc3ccccc3)C(=O)[C@H]2[C@H]2CN=C(SCc3ccc(Cl)cc3)N21 | inconclusive: 20 µM [inhibitor, single point] |
| COCc1[nH]nc2c1C(c1ccccc1Cl)C(C#N)=C(N)O2 (stereo not drawn) | inactive |
| CC1CCCCN1CCCNC(=O)C1CCCN(c2ncnc3c2nc2n3CCCCC2)C1 (stereo not drawn) | inactive |
| Cc1ccc(C(=O)Cn2c(C(=O)/C=C/c3ccccc3)nc3ccccc32)cc1 | inactive |
| COc1cc(CNC(=O)C2CC2)ccc1OCc1ccccc1 | inactive |
| CSc1cccc(NC(=O)C2CCCN(S(=O)(=O)c3ccc4c(c3)CCCN4C(C)=O)C2)c1 (stereo not drawn) | inconclusive: 20 µM [inhibitor, partial curve, poor fit] |
| Cc1ccc(S(=O)(=O)c2c(C)nn(C(C)(C)C)c2OC(=O)C2CCCC2)cc1 | inconclusive: 7.94 µM [inhibitor, partial curve, poor fit] |
| Cc1nc2ccc(NC(=O)C3=NN(C)C(=O)CC3)cc2s1 | inactive |
| NC(=O)c1ccc2c(=O)n3c(-c4cccs4)csc3nc2c1 | inconclusive: 4.47 µM [inhibitor, full curve, poor fit] |
| CCS(=O)(=O)c1ncc(Cl)c(C(=O)Nc2ccccc2OC)n1 | active: 3.55 µM |

| SMILES | Potency |
| --- | --- |
| COc1cc2ccccc2cc1C(=O)Nc1ccccc1Cl | inconclusive: 22.4 µM [inhibitor, single point] |
| CCC(C)CCN1C(Nc2ccccc2)=NC[C@@H]1Cc1ccccc1 (stereo partly drawn) | inconclusive: 0.708 µM [inhibitor, full curve, poor fit] |
| COc1ccccc1-c1sc2cc3c(cc2c1-c1ccc(OCCN2CCCCC2)cc1)OCO3 | inconclusive: 28.2 µM [inhibitor, single point] |
| CN1CC[n+]2cnc3ccccc3c21 | inconclusive: 35.5 µM [inhibitor, partial curve, poor fit] |
| COCC1CCCCN1Cc1cn(-c2ccccc2)nc1-c1ccc2c(c1)OCO2 (stereo not drawn) | inconclusive: 0.112 µM [inhibitor, full curve, poor fit] |
| Cc1cc(C=O)c(C)n1-c1ccc(N2CCCCC2)c([N+](=O)[O-])c1 | inconclusive: 10 µM [inhibitor, partial curve, poor fit] |
| Cc1ccc(C2c3[nH]c4ccccc4c3CCN2C(=O)CSc2ccccc2)cc1 (stereo not drawn) | inactive |
| S=C(S)N1CCCC1 | inactive |
| O=C(NC(=S)NCc1nc2ccccc2[nH]1)c1ccccc1F | inactive |
| CCS(=O)(=O)N1CCc2cc(C(=O)Nc3cccc(NC(C)=O)c3)ccc21 | inactive |
| O=[N+]([O-])c1ccc(Nc2ccccc2)c2nonc12 | inconclusive: 14.1 µM [inhibitor, partial curve, poor fit] |
| Cc1cccc(NC(=O)[C@H](Cc2ccccc2)NC(=O)[C@@H]2Cc3ccccc3CN2)c1 | inactive |
| COc1cccc(/C=N/Nc2ncnc(Cl)c2N)c1O | active: 7.08 µM |
| CSc1nc2sc3c(c2c2nncn12)CCC3 | inconclusive: 12.6 µM [inhibitor, partial curve, poor fit] |
| COc1ccc(-c2nc(CSc3nnc(C)n4c3cc3sccc34)c(C)o2)cc1 | inconclusive: 14.1 µM [inhibitor, single point] |
| CCOC(=O)c1nnc(-c2ccc(C)cc2)nc1Oc1ccc(Cl)cc1Cl | inconclusive: 0.562 µM [inhibitor, full curve, poor fit] |
| Cc1cc(=O)[nH]c(N=N/C(=N/Nc2ccccc2C)c2ccccc2)n1 | inactive |
| CCOc1cc(CNc2ccc(S(N)(=O)=O)cc2)cc(Cl)c1OC | inactive |
| COc1ccc(C(=O)NC(=S)N2CC(C)OC(C)C2)cc1 (stereo not drawn) | inconclusive: 6.31 µM [inhibitor, single point] |
| COC(=O)C(C(=O)OC)C(c1ccccc1)C(C(=O)c1ccccc1)[N+](=O)[O-] (stereo not drawn) | inactive |
| O=C(c1ccc2c(c1)N(Cc1cccc(Cl)c1)C(=O)c1ccccc1S2(=O)=O)N1CCCCCC1 | inconclusive: 31.6 µM [inhibitor, partial curve, poor fit] |
| Cc1cccc(CCNC(=O)c2nn(C)c3c2CSc2ccccc2-3)c1 | inconclusive: 35.5 µM [inhibitor, single point] |
| CC(=O)N=c1sc2nc3ccccc3nc2n1N(C(C)=O)C(C)=O | inconclusive: 28.2 µM [inhibitor, single point] |

| SMILES | Potency |
| --- | --- |
| O=C(Nc1ccccc1)N(O)c1ccc(Cl)cc1 | inactive |
| O=c1[nH]cc(S(=O)(=O)Nc2ccc3c(c2)OCO3)c(=O)[nH]1 | inactive |
| CNN/C(N=Cc1ccc([N+](=O)[O-])s1)=N\S(=O)(=O)c1cc(C)c(Cl)cc1SCc1ccccc1 | inconclusive: 3.98 µM [inhibitor, partial curve] |
| COc1cc(CN(C)CC2CCCN(CCc3cccc(C(F)(F)F)c3)C2)ccc1O (stereo not drawn) | inactive |
| CCCNS(=O)(=O)c1ccc(OCC(=O)NCC2CCCO2)cc1 (stereo not drawn) | inactive |
| CCCCc1nnc(NC(=O)C2CC(=O)N(c3ccc4c(c3)OCCO4)C2)s1 (stereo not drawn) | inactive |
| O=C(CN1CCCN(Cc2cccc(F)c2)S1(=O)=O)Nc1ccc2c(c1)OCCO2 | inconclusive: 15.8 µM [inhibitor, single point] |
| CC1=C/C(=C(/c2cc(C)c(O)c(Br)c2)c2ccccc2S(=O)(=O)O)C=C(Br)C1=O | inactive |
| COc1ccc(OC)c(S(=O)(=O)NCC(c2ccco2)N2CCc3ccccc32)c1 (stereo not drawn) | inconclusive: 11.2 µM [inhibitor, partial curve, poor fit] |
| O=C(NCC(c1cccnc1)N1CCc2ccccc2C1)C(=O)Nc1ccc(F)cc1F (stereo not drawn) | inconclusive: 11.2 µM [inhibitor, partial curve, poor fit] |
| CC(C)c1ccc(NC(=O)CCNS(=O)(=O)c2ccc3c(c2)oc(=O)n3C)cc1 | inconclusive: 7.94 µM [inhibitor, partial curve, poor fit] |
| Cc1ccc(-n2ncc(C(=O)N3CCN(C(=O)c4ccco4)CC3)c2C2CCN(C(=O)OC(C)(C)C)CC2)cc1 | inactive |
| CCS(=O)(=O)c1ncc(Cl)c(C(=O)Nc2c(C(=O)c3ccc(C)cc3)oc3ccccc23)n1 | inactive |
| O=C(CCS(=O)(=O)c1nc(-c2ccc3c(c2)OCO3)cc(C(F)(F)F)n1)Nc1ccc(F)cc1F | active: 17.8 µM |
| CNC(=O)/C(C#N)=C/c1ccc(-c2ccc(Cl)cc2)o1 | inconclusive: 0.891 µM [inhibitor, full curve] |
| Cc1ccc(NC(=O)C2CCN(C(=O)c3cnn(-c4ccccc4)c3-n3cccc3)CC2)cc1C | inconclusive: 14.1 µM [inhibitor, partial curve, poor fit] |
| COc1ccc([C@H]2/C=C\CN(C(=O)c3ccc(C)cc3)[C@@H](C)C(=O)N2Cc2ccc(F)cc2)cc1 | inconclusive: 35.5 µM [inhibitor, single point] |
| CC1CCCCC1NC(=O)/C(C#N)=C/c1ccc2c(c1)OCCO2 (stereo not drawn) | inconclusive: 39.8 µM [inhibitor, partial curve, poor fit] |
| O=C(COC(=O)c1ccc2c(c1Cl)C(=O)c1ccccc1C2=O)NC1CC1 | inconclusive: 35.5 µM [inhibitor, single point] |
| COc1ccc(CN2C(=O)[C@H]3Cc4c([nH]c5ccccc45)C(C)(C)N3C2=O)cc1 | inconclusive: 28.2 µM [inhibitor, single point] |
| CC(C)NS(=O)(=O)c1ccc(NC(=O)C(C)Oc2ccc(C(=O)c3ccccc3)cc2)cc1 (stereo not drawn) | inconclusive: 35.5 µM [inhibitor, single point] |
| Cc1oc(C(C)(C)C)cc1C(=O)Nc1ccc2c(c1)OCCO2 | inconclusive: 22.4 µM [inhibitor, single point] |
